From patent US20240218054A1

Molecular target: recombinant YFV E protein (soluble E, sE; YFV Asibi strain) (Yellow fever virus, Asibi strain)
Test: BLI monovalent (IgG on tip)

B1: ADI-50536 (antibody, V domains shown)
VH: QVQLVESGSELKKPGASVKVSCKASGYTFTSYAMNWVRQAPGQGLEWMGWINTNTGNPTYAQGFTGRFVFSLDTSVSTAYLQISSLKAEDTAVYYCVRGYCSSTSCYGGLYWFDPWGQGTLVTVSS
VL: DIRVTQSPSSLSASVGDRVTIT[about 80 residues not given here]FGGGTKVDIK
Question: For B1, which Kd is on record?
Answer: > 100 nM
